In all, about 52,000 compounds went through this assay and about 4,300 (8.3%) were called active. Cut-off read from the data, not from the text of the source: active = survival mostly below about 52% (no sharp cut-off); inactive = mostly above about 56%. The list shows a part of the results.

The subject of the experiment is DeltatarO mutant. Nature of the experiment: growth inhibition of S. aureus wild type versus tarO mutant, primary screen, teichoic acid synthesis inhibitors, RN4220, OD600 (AID 463173). The conditions noted are these: OD600, 18 h, active compounds read low, screened at 18.75 µg/mL (by protocol).
In the case of `CCOC(=O)c1cccc(NS(=O)(=O)c2cc(-c3cnc(C4CC4)o3)ccc2C)c1`, the survival is inactive: 90%. On to `Cc1c(C(=O)OC(C)C)sc(NC(=O)C2c3ccccc3Oc3ccccc32)c1C(=O)OC(C)C`, for which the survival was inactive: 80%.

Regarding `NC(=O)N/N=C/c1ccc(-c2ccc(Cl)cc2)o1`, the survival is inactive: 87%. In the case of `Cc1ccc(Sc2c(C)nn(C(=O)c3ccc(Cl)cc3)c2C)cc1`, the survival is active: 19%. Turning to `Cc1ccc(-n2c3nc(=O)[nH]c(=O)c-3cc3c(C)nn(-c4ccccc4)c32)cc1C`, the survival was inactive: 107%. `CCOC(=O)c1c(S(=O)(=O)N2CCCC(C(=O)Nc3ccc(C)cn3)C2)c(C)n(C)c1C` (stereo unspecified): the survival was inactive: 72%.

With `CCCOc1nc(N)c(C#N)c(-c2ccccc2F)c1C#N`, the survival is inactive: 84%.

Turning to `CC1(C)CC(=O)c2cc(C#N)c(=O)n(-c3ccc(Cl)cc3)c2C1`, the survival was inactive: 52%. The result for `O=C(O)CCC(=O)Nc1sc2c(c1C(=O)Nc1ccccc1)CCCCC2` reads inactive: 92%; that for `CCc1ccc(NC(=O)c2ccc(F)c(S(=O)(=O)N3CCN(c4ccc(OC)cc4)CC3)c2)cc1`, inactive: 76%. For `Cc1ccsc1CN(C(=O)c1ccc(OCC(C)C)cc1)C1CCS(=O)(=O)C1` (stereo unspecified) the value was inactive: 83%; for `CC(C)CN(CC(C)C)C(=O)C1CCCN(S(=O)(=O)c2ccc3c(c2)oc(=O)n3C)C1` (stereo unspecified), inactive: 98%; for `COc1cccc(NC(=O)c2nn(-c3ccc(C)cc3)c(=O)n(C)c2=O)c1`, inactive: 124%. For `Cc1cc(C)c2nc(N3CCCC(C(=O)NCc4cccc(Cl)c4)C3)sc2c1` (stereo unspecified) the value was inactive: 65%; for `COc1ccc(CNS(=O)(=O)c2cc3c(cc2C)n(C)c(=O)c(=O)n3C)cc1`, inactive: 91%. `Cc1ccc(NS(=O)(=O)c2ccc3c(c2)NC(=O)C(C)C(=O)N3)cc1F` (stereo unspecified): the survival was inactive: 69%. For the compound `CCc1ccc(CNC(=O)c2ccc3nc(SCc4ccc(F)cc4)n(C)c3c2)cc1`, the survival was inactive: 94%. Regarding `Cc1ccc(NC(=O)CSc2cc(=O)n(C)c3ccc(Cl)cc23)c(Br)c1`, the survival is inactive: 79%. `Cc1cccc(N2CCN(C(=O)c3cc4c(=O)oc5ccccc5c4s3)CC2C)c1` (stereo unspecified): the survival is inactive: 45%. `COC(=O)CSc1nc2ccccc2s1`: the survival is inactive: 94%.

Consider `Cc1ccc(-n2nc(C(=O)N3CCN(c4cccc(C(F)(F)F)c4)CC3)c(=O)n(C)c2=O)cc1`, for which the survival was inactive: 90%. For the compound `COc1cc(NC(=O)CN2C(=O)C(c3ccc(C)cc3)=NC23CCCCC3)cc(OC)c1`, the survival was inactive: 96%.

As for `Cc1oc2ccc(O)c(CN3CCOCC3)c2c1C(=O)Nc1ccccc1`, the survival is inactive: 74%. Regarding `Cc1ccc(CNc2ccc(-c3nc(C(C)C)no3)cc2[N+](=O)[O-])cc1`, the survival is inactive: 60%. For `Cc1ccc(-n2c(=O)c3c(c4cc(C)ccc4n3C)n(CC(=O)Nc3c(C)cccc3C)c2=O)cc1` the value was inactive: 123%; for `O=C(CCSCCc1ccccn1)Nc1cc(F)ccc1F`, inactive: 79%; for `CCCCN(C)CCNC(=O)c1c(C)oc2ncnc(N3CCOCC3)c12`, inactive: 68%. For the compound `Cc1ccc(NC(=O)c2cnn(-c3ccc(C)c(C)c3)c2C2CCN(C(=O)OC(C)(C)C)CC2)c(C)c1`, the survival was inactive: 109%. For `Cc1cccc(NC(=O)Cn2c(=O)n(CCC(C)C)c(=O)c3cccnc32)c1`, the survival is inactive: 115%. Consider `Cc1cccc(C(=O)Nc2cc3c(cc2N2CCCCC2)n(C)c(=O)c(=O)n3C)c1`, for which the survival is inactive: 94%.

As to `O=C(CCN1CCCCC1)c1ccccc1`, the survival was inactive: 87%. The result for `CC(=O)N1CCC2(CC1)OC(=O)C(C)=C2C(=O)Nc1cccc(Cl)c1C` reads inactive: 70%.

Take `CCCCC(=O)Nc1cc(C)c(O)c(-c2nc3ncccc3o2)c1`: the survival is inactive: 161%. `CCOC(=O)Cn1cc(C#N)c2ccccc21`: the survival was inactive: 90%.

Take `O=C(CC1N=C2c3ccccc3N=C(SCc3ccccc3F)N2C1=O)NCCc1ccccc1` (stereo unspecified): the survival is inactive: 69%. As to `O=C1N=C2C=CC=CN2C(=O)C1Cc1ccccc1` (stereo unspecified), the survival is inactive: 95%. Take `CC1=C(C(=O)Nc2ccccc2)C(c2cccnc2)n2nc(SCc3ccccc3F)nc2N1` (stereo unspecified): the survival is inactive: 65%. For `CCC(CC)C(=O)Nc1cc(-c2cccc(C)c2)nn1-c1ccccc1` the value was inactive: 94%.

`COc1cccc(CNC(=O)C2CCN(C(=O)N3CCOc4ccc(Cl)cc43)CC2)c1OC`: the survival is inactive: 99%. For `COc1ccc(Cl)cc1NC(=O)c1cc(C)nc2c1c(C)nn2-c1ccccc1` the value was inactive: 109%.

As to `O=c1c2sc3ccccc3c2n(Cc2ccccc2F)c(=O)n1Cc1ccccc1`, the survival was inactive: 76%. The result for `Cc1ccc(Cn2c(=O)n(Cc3ccco3)c(=O)c3sc4ccccc4c32)cc1` reads inactive: 90%; that for `O=c1c2cnn(-c3ccc(Cl)cc3)c2ncn1Cc1ccc(Cl)cc1Cl`, inactive: 102%. The result for `Cc1nc2c(C(=O)NCc3ccccc3)cnn2c(C)c1Cc1ccc(F)cc1` reads inactive: 83%; that for `COc1ccccc1NC(=O)N1c2ccccc2Sc2ccccc21`, active: -6%.

With `COc1ccc(OC)c(-n2nnc3c(sc4nc(C)c(Br)c(C)c43)c2=O)c1`, the survival was inactive: 59%. The result for `Cc1nc(C)c(-c2ccc(SCC(=O)Nc3ccc(Cl)c(Cl)c3)nn2)s1` reads active: 46%; that for `Cc1ccc(CCNC(=O)CCN2N=C(c3ccc(C)cc3)CCC2=O)cc1`, inactive: 107%; that for `Cc1ccc(Cl)cc1Nc1nc2ccccc2c2nncn12`, inactive: 104%. Regarding `Cc1ccsc1CCN1C(=O)N(c2ccccc2)C(=O)C1CC(=O)Nc1ccc(F)cc1` (stereo unspecified), the survival is inactive: 114%. As to `COc1ccc(CCC(=O)NCc2ccc3c(c2)CCN3C(=O)c2ccc(F)cc2)cc1`, the survival was inactive: 89%. As to `COc1ccc(-c2nc3cc(NC(=O)Cc4ccc(Cl)cc4)ccc3o2)cc1OC`, the survival was inactive: 47%. Take `CC(C)CC(=O)Nc1nnc(S(=O)(=O)N2CCCCCC2)s1`: the survival is inactive: 109%. With `Cc1cccc(C)c1NC(=O)c1ccc2c(c1)N(Cc1cccc(Cl)c1)C(=O)c1ccccc1S2=O` (stereo unspecified), the survival is inactive: 105%. Turning to `COc1ccc(-c2noc(CCC(=O)N(C)c3ccccc3C)n2)cc1`, the survival was inactive: 80%. On to `COCCCNS(=O)(=O)c1cc(-c2onc(C)c2C)ccc1OC`, for which the survival was inactive: 115%. Consider `COc1ccc(N2CCN(C(=O)CSc3n[nH]c(-c4ccccc4)n3)CC2)cc1`, for which the survival is inactive: 84%. Turning to `COc1ccc(CNCCNC(=O)c2ccncc2)c(OC)c1OC`, the survival is inactive: 99%. Take `CN(C)C(=O)c1ccc(NC(=O)Cn2nnnc2-c2ccccc2F)cc1`: the survival was inactive: 108%.

With `CCN(CC)C(=O)C1C(=O)N(C)C2(C)CC1c1ccccc1O2` (stereo unspecified), the survival was inactive: 74%. The result for `O=C(Nc1ccc(-c2nc3cc(NC(=O)c4ccccc4Cl)ccc3o2)cc1)c1ccccc1Cl` reads inactive: 83%; that for `COc1ccc(Nc2c3c(nc4ccc(NC(=O)/C=C/c5cc(OC)c(OC)c(OC)c5)cc24)CCCC3)cc1OC`, inactive: 66%; that for `COc1cccc(C2(O)CCN(C(=O)c3cccs3)CC2)c1`, inactive: 57%. Take `O=C(c1ccc(C(F)(F)F)cc1)N1CCC(c2noc(-c3ccc(S(=O)(=O)N4CCCC4)cc3)n2)CC1`: the survival was inactive: 85%.

Regarding `O=C1NC(=O)C(=Cc2ccc(N3CCCC3)o2)C(=O)N1`, the survival is inactive: 66%. For `NC(=O)c1ccccc1NC(=O)C1CCCN(c2ncnc3onc(-c4ccc(F)cc4)c23)C1` (stereo unspecified) the value was inactive: 71%.

Turning to `O=C(CCc1nc2cccnc2n1Cc1cccs1)Nc1cccc(C(F)(F)F)c1`, the survival is inactive: 65%. For `Cc1ccc(NC(=O)CN2C(=O)CCc3cc(S(=O)(=O)N4CCOCC4)ccc32)cc1N(C)C` the value was inactive: 93%. In the case of `O=C(NC1CCCC1)c1ccc2c(c1)N(Cc1ccc(C(F)(F)F)cc1)C(=O)c1ccccc1S2`, the survival was inactive: 84%. As for `Cc1ccccc1Cn1c(=O)n(Cc2ccc3c(c2)OCO3)c(=O)c2oc3ccccc3c21`, the survival was inactive: 110%.

`COc1ccc(OC)c(-c2nc3c(C#N)c[nH]n3c2NC2CCCCC2)c1`: the survival is inactive: 89%. For `Cc1cccc(NC(=O)NC2CC3CCCC(C2)N3CC(C)C)c1` (stereo unspecified), the survival is inactive: 94%. Take `Nn1c(Nc2ccccc2)nc2sc3c(c2c1=O)CCCC3`: the survival is inactive: 96%. Regarding `CC(=O)Nc1ccc2oc(-c3ccccc3)nc2c1`, the survival was inactive: 94%. As to `CCCN(c1ccc(C(C)C)cc1)S(=O)(=O)c1ccc2c(c1)CCN2C(=O)CC`, the survival is inactive: 105%. Regarding `COc1ccccc1CNC(=O)Cc1c(C)c2c(cc(C)c3c(C)coc32)oc1=O`, the survival is inactive: 71%.

Regarding `CN(C)c1ccc(CN(CC2CCCO2)C(=O)COc2ccccc2Cl)cc1` (stereo unspecified), the survival is inactive: 45%. Take `N#Cc1ccc(-c2cccs2)nc1SCc1c(F)cccc1Cl`: the survival was active: 36%. `Cc1ccccc1C(=O)N(Cc1ccc(N(C)C)cc1)Cc1ccco1`: the survival is inactive: 83%.

Regarding `O=C1OC2(c3ccccc3)C3CCCC2C13`, the survival is inactive: 121%.

For `O=C(Nc1cc(F)ccc1F)N1CCC(CN2CCOCC2)CC1`, the survival is inactive: 87%.

As to `COc1ccc(-n2cc(-c3ccccc3)c3c(NC4CCCCC4)ncnc32)cc1`, the survival was inactive: 123%. `COc1ccc(CCNC(=O)Cc2nn(C)c(=O)c3ccccc23)cc1OC`: the survival was inactive: 97%.

As to `O=C(/C=C/c1ccccc1)Nc1ccc2c(c1)OCCO2`, the survival is inactive: 76%. The result for `CN(C)c1ccc(CNC(=O)C2CCCN(S(=O)(=O)c3ccc4c(c3)oc(=O)n4C)C2)cc1` (stereo unspecified) reads inactive: 96%. As for `NC(Cc1ccc2nsnc2c1)C(=O)O` (stereo unspecified), the survival is inactive: 82%.

Turning to `CCc1nonc1NC(=O)c1oc2ccc(F)cc2c1C`, the survival was inactive: 84%. With `CCc1c(C)nc(N)n2c(SCc3ccc(C(F)(F)F)cc3)nnc12`, the survival was inactive: 103%.

Take `COc1ccc(CCNC(=O)C(=O)NCC(c2ccc3c(c2)OCO3)N2CCOCC2)cc1` (stereo unspecified): the survival is active: 32%.

For the compound `CC1=C(C(=O)Nc2ccc(Cl)cc2)C(c2ccccc2C)n2ncc(C(=O)Nc3ccc(C)cc3)c2N1` (stereo unspecified), the survival was inactive: 54%.

As for `CCN1C(=O)c2ccccc2Sc2ccc(NC(=O)COc3ccc(Cl)cc3)cc21`, the survival was inactive: 91%.

The record behind these values is PubChem BioAssay AID463173 (ICCB-Longwood Screening Facility, Harvard Medical School, 2010).
